Results as given in the supplement of paper PMC8728848.
The other results are listed elsewhere or left out.

Tests used:
Experiment in all cases: glycan array binding signal (z-score within array); higher = stronger binding
Details in all cases: glycan notation: IUPAC condensed, linker removed
Fuc(a1-2)Gal = molecular target: Fuc(a1-2)Gal
How it was run: (§1)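 Glycan array data came from 3228 arrays in the Consortium for Functional Glycomics database, and only arrays with an available protein sequence were kept. Glycan names were put into IUPAC-condensed notation, and columns mapping to the same glycan were averaged. The binding signal is a within-array Z-score, averaged across arrays of one protein sequence run at different concentrations or buffers and across linkers. A negative Z-score can be read as non-binding.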

Fuc(a1-2)Gal(b1-3)GalNAc = molecular target: Fuc(a1-2)Gal(b1-3)GalNAc
How it was run: as §1

[1] = molecular target: Fuc(a1-2)Gal(b1-3)GalNAc(a1-3)[Fuc(a1-2)]Gal(b1-4)Glc
How it was run: as §1

[2] = molecular target: Fuc(a1-2)Gal(b1-3)GalNAc(a1-3)[Fuc(a1-2)]Gal(b1-4)GlcNAc
How it was run: as §1

[3] = molecular target: Fuc(a1-2)Gal(b1-3)GalNAc(b1-3)Gal
How it was run: as §1

[4] = molecular target: Fuc(a1-2)Gal(b1-3)GalNAc(b1-3)Gal(a1-4)Gal(b1-4)Glc
How it was run: as §1

[5] = molecular target: Fuc(a1-2)Gal(b1-3)GalNAc(b1-4)[Neu5Ac(a2-3)]Gal(b1-4)Glc
How it was run: as §1

Fuc(a1-2)Gal(b1-3)GlcNAc = molecular target: Fuc(a1-2)Gal(b1-3)GlcNAc
How it was run: as §1

[6] = molecular target: Fuc(a1-2)Gal(b1-3)GlcNAc(b1-2)Man(a1-3)[Fuc(a1-2)Gal(b1-3)GlcNAc(b1-2)Man(a1-6)]Man(b1-4)GlcNAc(b1-4)GlcNAc
How it was run: as §1

[7] = molecular target: Fuc(a1-2)Gal(b1-3)GlcNAc(b1-2)Man(a1-3)[Fuc(a1-2)Gal(b1-3)GlcNAc(b1-2)Man(a1-6)]Man(b1-4)GlcNAc(b1-4)[Fuc(a1-6)]GlcNAc
How it was run: as §1

[8] = molecular target: Fuc(a1-2)Gal(b1-3)GlcNAc(b1-3)Gal(b1-4)Glc
How it was run: as §1

[9] = molecular target: Fuc(a1-2)Gal(b1-3)GlcNAc(b1-3)GalNAc
How it was run: as §1

[10] = molecular target: Fuc(a1-2)Gal(b1-3)GlcNAc(b1-3)[Fuc(a1-2)Gal(b1-3)GlcNAc(b1-6)]GalNAc
How it was run: as §1

[11] = molecular target: Fuc(a1-2)Gal(b1-3)GlcNAc(b1-3)[Gal(b1-4)GlcNAc(b1-6)]Gal(b1-4)Glc
How it was run: as §1

[12] = molecular target: Fuc(a1-2)Gal(b1-3)GlcNAc(b1-3)[Neu5Ac(a2-6)Gal(b1-4)GlcNAc(b1-6)]Gal(b1-4)Glc
How it was run: as §1

[13] = molecular target: Fuc(a1-2)Gal(b1-3)GlcNAc6S
How it was run: as §1

[14] = molecular target: Fuc(a1-2)Gal(b1-3)[Fuc(a1-4)]GlcNAc
How it was run: as §1

[15] = molecular target: Fuc(a1-2)Gal(b1-3)[Fuc(a1-4)]GlcNAc(b1-2)Man(a1-3)[Fuc(a1-2)Gal(b1-3)[Fuc(a1-4)]GlcNAc(b1-2)Man(a1-3)]Man(b1-4)GlcNAc(b1-4)GlcNAc
How it was run: as §1

[16] = molecular target: Fuc(a1-2)Gal(b1-3)[Fuc(a1-4)]GlcNAc(b1-2)Man(a1-3)[Fuc(a1-2)Gal(b1-3)[Fuc(a1-4)]GlcNAc(b1-2)Man(a1-6)]Man(b1-4)GlcNAc(b1-4)[Fuc(a1-6)]GlcNAc(b1-4)[Fuc(a1-6)]GlcNAc
How it was run: as §1

[17] = molecular target: Fuc(a1-2)Gal(b1-3)[Fuc(a1-4)]GlcNAc(b1-3)[Fuc(a1-3)[Gal(b1-4)]GlcNAc(b1-6)]Gal(b1-4)Glc
How it was run: as §1

[18] = molecular target: Fuc(a1-2)Gal(b1-3)[Fuc(a1-4)]GlcNAc(b1-3)[Gal(b1-4)GlcNAc(b1-6)]Gal(b1-4)Glc
How it was run: as §1

[19] = molecular target: Fuc(a1-2)Gal(b1-4)Fuc(a1-3)]GlcNAc(b1-2)Man(a1-3)[Fuc(a1-2)Gal(b1-4)[Fuc(a1-3)]GlcNAc(b1-2)Man(a1-6)]Man(b1-4)GlcNAc(b1-4)GlcNAc
How it was run: as §1

Fuc(a1-2)Gal(b1-4)Glc = molecular target: Fuc(a1-2)Gal(b1-4)Glc
How it was run: as §1

Fuc(a1-2)Gal(b1-4)Glc6S = molecular target: Fuc(a1-2)Gal(b1-4)Glc6S
How it was run: as §1

Fuc(a1-2)Gal(b1-4)GlcNAc = molecular target: Fuc(a1-2)Gal(b1-4)GlcNAc
How it was run: as §1

[20] = molecular target: Fuc(a1-2)Gal(b1-4)GlcNAc(b1-2)Man
How it was run: as §1

[21] = molecular target: Fuc(a1-2)Gal(b1-4)GlcNAc(b1-2)Man(a1-3)[Fuc(a1-2)Gal(b1-4)GlcNAc(b1-2)Man(a1-6)]Man(b1-4)GlcNAc(b1-4)GlcNAc
How it was run: as §1

[22] = molecular target: Fuc(a1-2)Gal(b1-4)GlcNAc(b1-2)Man(a1-3)[Fuc(a1-2)Gal(b1-4)GlcNAc(b1-2)Man(a1-6)]Man(b1-4)GlcNAc(b1-4)[Fuc(a1-6)]GlcNAc
How it was run: as §1

[23] = molecular target: Fuc(a1-2)Gal(b1-4)GlcNAc(b1-2)[Fuc(a1-2)Gal(b1-4)GlcNAc(b1-4)]Man(a1-3)[Fuc(a1-2)Gal(b1-4)GlcNAc(b1-2)Man(a1-6)]Man(b1-4)GlcNAc(b1-4)GlcNAc
How it was run: as §1

[24] = molecular target: Fuc(a1-2)Gal(b1-4)GlcNAc(b1-3)Gal(b1-4)GlcNAc
How it was run: as §1

B1: HHA (Hippeastrum hybrid) (protein)
chain: MQQDCNLVLYDVDKPIWASNTGGLARDCHLNMQSDGNLVVYAPRNQVIWASNTQGENGNYVCILQKDRNVVIYGTARWATGTNIHGAGIVGVPGSAPQNTTAEMIKLVRKYLITK
glycan array binding signal (z-score) (Fuc(a1-2)Gal): -0.215 | glycan array binding signal (z-score) (Fuc(a1-2)Gal(b1-3)GalNAc): -0.132 | glycan array binding signal (z-score) [1]: -0.202 | glycan array binding signal (z-score) [2]: -0.205 | glycan array binding signal (z-score) [3]: -0.148 | glycan array binding signal (z-score) [4]: -0.193 | glycan array binding signal (z-score) [5]: -0.203 | glycan array binding signal (z-score) (Fuc(a1-2)Gal(b1-3)GlcNAc): -0.216 | glycan array binding signal (z-score) [6]: 0.241 | glycan array binding signal (z-score) [7]: 0.42 | glycan array binding signal (z-score) [8]: -0.219 | glycan array binding signal (z-score) [9]: -0.145 | glycan array binding signal (z-score) [10]: -0.191 | glycan array binding signal (z-score) [11]: -0.2 | glycan array binding signal (z-score) [12]: -0.213 | glycan array binding signal (z-score) [13]: -0.18 | glycan array binding signal (z-score) [14]: -0.211 | glycan array binding signal (z-score) [15]: -0.133 | glycan array binding signal (z-score) [16]: 0.036 | glycan array binding signal (z-score) [17]: -0.207 | glycan array binding signal (z-score) [18]: -0.203 | glycan array binding signal (z-score) [19]: -0.155 | glycan array binding signal (z-score) (Fuc(a1-2)Gal(b1-4)Glc): -0.224 | glycan array binding signal (z-score) (Fuc(a1-2)Gal(b1-4)Glc6S): -0.199 | glycan array binding signal (z-score) (Fuc(a1-2)Gal(b1-4)GlcNAc): -0.214 | glycan array binding signal (z-score) [20]: -0.204 | glycan array binding signal (z-score) [21]: 0.036 | glycan array binding signal (z-score) [22]: 0.294 | glycan array binding signal (z-score) [23]: 0.026 | glycan array binding signal (z-score) [24]: -0.191
